Laboratory results reported in the supplement of paper PMC9334596.
Several values for one entry are separate records, joined by “and”; a condition that tells them apart may be missing. Identical values can stand only once. The full ranking holds about 5,300 compounds; the median of “PER2::LUC luminescence relative to vehicle control” is about 0.96, and the highest 2% start at about 1.3. Some of the results follow.

Test system: mPer2Luc MEF
Test: PER2::LUC luminescence relative to vehicle control (fold of vehicle); higher = higher PER2::LUC reporter signal
Conditions: 10 µM
In short: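 Mouse embryonic fibroblasts carrying the mPer2Luc reporter were seeded at ~3000 cells per well in 384-well plates, 48 h before compounds from commercial libraries were added at 10 μM. Cells were grown in DMEM with 10% FBS at 37 °C and 5% CO2. Luminescence was read with the ONE-Glo luciferase assay system 24 h and 30 h after treatment, followed by an alamarBlue viability assay. The value is PER2::LUC luminescence as fold of vehicle control.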

Structure (SMILES)	PER2::LUC luminescence (time after treatment 24 h)	PER2::LUC luminescence (time after treatment 30 h)
C[C@@H](O)[C@H]1C(=O)N2C(C(=O)[O-])=C(SC3Cn4cnc[n+]4C3)[C@H](C)[C@H]12 (some centres undefined)	1.09	1.08
C[C@@H]1CCNC(=O)c2cc3ccc(C(=O)Nc4nc5ccccc5n4CCCN(C)C)cc3n21	0.548	0.586
O=c1ccn([C@@H]2O[C@H](COP(=O)(O)OP(=O)(O)OP(=O)(O)O)[C@@H](O)[C@H]2O)c(=O)[nH]1	1.08	1.06
COc1cc(O)c2c(=O)cc(-c3ccc(O)cc3)oc2c1	1.21	1.32
CC(C(=O)O)c1ccc2c(c1)CC(=O)c1ccccc1S2 (centres undefined)	1.05	1.08
COc1ccc(CC2c3cc(OC)c(OC)cc3CC[N+]2(C)CCC(=O)OCCCCCOC(=O)CC[N+]2(C)CCc3cc(OC)c(OC)cc3C2Cc2ccc(OC)c(OC)c2)cc1OC (centres undefined)	0.845	0.818
CC(=O)[C@H]1CC[C@H]2[C@@H]3CC=C4C[C@@H](O)CC[C@]4(C)[C@H]3CC[C@]12C	0.912	0.896
NS(=O)(=O)c1ccc(-c2c(-c3ccccc3)noc2C(F)F)cc1	1.04	1
O=c1c(-c2cc(O)c(O)c(O)c2)coc2cc(O)c(O)c(O)c12	0.977	0.832
Cc1ccc2c(=O)c3cccc(CC(=O)O)c3oc2c1C	0.965	1.06
CC[C@@H](C(=O)[C@@H](C)[C@@H](O)[C@H](C)CCc1ccc(C)c(O)c1C(=O)O)[C@H]1O[C@](CC)([C@H]2CC[C@](O)(CC)[C@H](C)O2)C[C@@H]1C	0.343	0.294
C=C1/C(=C\C=C2/CCC[C@]3(C)[C@@H]([C@H](C)/C=C/[C@H](C)C(C)C)CC[C@@H]23)C[C@@H](O)C[C@@H]1O	1.04 and 1.06	1.06 and 0.986
N[C@@]1(C(=O)O)CS(=O)(=O)[C@H]2[C@H](C(=O)O)[C@H]21	1.03	1.1
CCOC(=O)C1=C(COCCN)NC(C)=C(C(=O)OC)[C@@H]1c1ccccc1Cl	0.445	0.46
C[C@H]1O[C@@H](Oc2c(-c3cc(O)c(O)c(O)c3)oc3cc(O)cc(O)c3c2=O)[C@@H](O)[C@@H](O)[C@@H]1O	0.947	0.952
CC(COc1ccccc1)NC(C)C(O)c1ccc(O)cc1 (centres undefined)	0.789	0.861
Cc1cc(=O)oc2c(O)c(O)ccc12	0.968	0.756
CC1(C)Oc2ncnc(N)c2N=C1c1ccc([C@H]2CC[C@H](CC(=O)O)CC2)cc1	1.09	1.11
CC12CCCC(O)(C1)C1CC(C)(C)C1CC2 (centres undefined)	1.01	0.927
CCCCN1CCCCC1C(=O)Nc1c(C)cccc1C (centres undefined)	0.526	0.81
CO/N=C1\C[C@]2(C[C@@H]3C[C@@H](C/C=C(\C)C[C@@H](C)/C=C/C=C4\CO[C@@H]5[C@H](O)C(C)=C[C@@H](C(=O)O3)[C@]45O)O2)O[C@H](/C(C)=C/C(C)C)[C@H]1C	1.08	1.12
CCOC(=O)NNc1nncc2ccccc12	0.972	0.87
Cc1oc2nc3c(c(NC(=O)CN4CCCC4=O)c2c1C)CCCC3	1.03	0.893
CCOC(=O)c1[nH]c2cc(Cl)ccc2c1C(C(=O)NC(C)(C)C)N(C=O)Cc1ccc(Cl)cc1 (centres undefined)	0.81	0.683

Structure (SMILES)	PER2::LUC luminescence (time after treatment 24 h)	PER2::LUC luminescence (time after treatment 30 h)
CC1(C)[C@@H](O)CC[C@]2(C)[C@H]3C(=O)C=C4[C@H]5C[C@@](C)(C(=O)O)CC[C@]5(C)CC[C@@]4(C)[C@]3(C)CC[C@@H]12	0.97	0.899
CC(=O)c1c(O)cc(O)cc1O	1.05	1.03
CC(=O)O[C@@H]1CC2C(C)(CC[C@H](O)C2(C)C)C2CC[C@]3(C)C(=CC(=O)O[C@H]3c3ccoc3)C21C (some centres undefined)	0.798	0.858
CC(=O)N[C@@H](C=O)[C@@H](O)[C@H](O)[C@H](O)CO	0.987	0.909
COC1CCN(C(=O)c2cc(Cc3n[nH]c(=O)c4ccccc34)ccc2F)CC1	1.1	0.955
CO[C@H]1C[C@H](O[C@H]2[C@H](C)[C@@H](O[C@@H]3O[C@H](C)C[C@H](N(C)C)[C@H]3O)[C@@H](C)C[C@@]3(CO3)C(=O)[C@H](C)[C@@H](O)[C@@H](C)[C@@H](C)OC(=O)[C@@H]2C)O[C@@H](C)[C@@H]1O	0.431	0.899
O=C(O)[C@H]1O[C@@H](Oc2cc3oc(-c4ccccc4)cc(=O)c3c(O)c2O)[C@H](O)[C@@H](O)[C@@H]1O	1.22	1.34
CCN1CCC(n2cc(CNc3cc(Cl)c4ncc(C#N)c(Nc5ccc(F)c(Cl)c5)c4c3)nn2)CC1	0.711	0.73
Nc1ccc(S(=O)(=O)Nc2ccccn2)cc1	0.888	0.767
N[C@@H](Cc1ccc(O)c(I)c1)C(=O)O	0.947	0.907
O=C(O)[C@H](O)[C@@](O)(Cc1ccc(O)cc1)C(=O)O	0.947	0.901
COc1ccnc(C[S+]([O-])c2nc3cc(OC(F)F)ccc3[nH]2)c1OC (centres undefined)	0.944 and 1.32	1.01 and 0.991
Cc1[nH]c2ccccc2c1CCNCc1ccc(/C=C/C(=O)NO)cc1	0.381	0.253
O=C(NCCO)c1ccc2c(c1)nc(Nc1cccc(Cl)c1)c1ccncc12	1.03	0.995
O=c1[nH]c(=O)c2ccccc2o1	0.411	0.755
Nc1ccn([C@@H]2O[C@H](CO)[C@@H](O)[C@@H]2O)c(=O)n1	0.909 and 0.992 and 0.831	0.965 and 0.831 and 0.963
Nc1ncnc2c1ncn2C1CCCO1 (centres undefined)	1.15	1.25
O=c1ccc2ccccc2o1	0.901	0.778
CC1(C)C=Cc2cc3ccc(=O)oc3cc2O1	1.26	1.48
NCCOB(c1ccccc1)c1ccccc1	0.966	0.931
CCOc1ccc(C[C@H]2NC(=O)CCSSC[C@@H](C(=O)N3CCC[C@H]3C(=O)N[C@@H](CCCN)C(=O)NCC(N)=O)NC(=O)[C@H](CC(N)=O)NC(=O)[C@H]([C@@H](C)O)NC(=O)[C@H]([C@@H](C)CC)NC2=O)cc1	0.966	0.883
CC(C)C[C@H](NC(=O)[C@H](CCC(N)=O)NC(=O)[C@H](CCCCN)NC(=O)[C@H](CCC(N)=O)NC(=O)[C@@H](N)CCC(=O)O)C(=O)N[C@@H](CCC(N)=O)C(=O)O	1.03	0.938
Cc1nc(-c2cccnc2)sc1C(=O)Nc1ccccc1-c1cn2c(CN3CCOCC3)csc2n1	1.07	0.911
